For 2 molecules, binding results are on record in publication PMC6446853.

Sequences of proteins named here, by UniProt entry; tags and fusion partners are left off.
UniProt O95067: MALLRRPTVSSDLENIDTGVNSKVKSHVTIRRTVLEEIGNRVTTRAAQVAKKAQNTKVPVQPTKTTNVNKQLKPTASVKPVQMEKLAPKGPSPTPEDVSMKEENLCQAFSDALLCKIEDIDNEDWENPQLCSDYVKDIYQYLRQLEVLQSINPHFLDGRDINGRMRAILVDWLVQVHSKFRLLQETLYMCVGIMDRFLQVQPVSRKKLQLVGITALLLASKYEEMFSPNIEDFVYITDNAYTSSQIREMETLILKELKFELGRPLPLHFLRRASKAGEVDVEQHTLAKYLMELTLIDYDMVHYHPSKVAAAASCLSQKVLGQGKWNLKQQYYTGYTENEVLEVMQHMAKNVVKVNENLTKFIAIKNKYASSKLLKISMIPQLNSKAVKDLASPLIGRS
UniProt P20248: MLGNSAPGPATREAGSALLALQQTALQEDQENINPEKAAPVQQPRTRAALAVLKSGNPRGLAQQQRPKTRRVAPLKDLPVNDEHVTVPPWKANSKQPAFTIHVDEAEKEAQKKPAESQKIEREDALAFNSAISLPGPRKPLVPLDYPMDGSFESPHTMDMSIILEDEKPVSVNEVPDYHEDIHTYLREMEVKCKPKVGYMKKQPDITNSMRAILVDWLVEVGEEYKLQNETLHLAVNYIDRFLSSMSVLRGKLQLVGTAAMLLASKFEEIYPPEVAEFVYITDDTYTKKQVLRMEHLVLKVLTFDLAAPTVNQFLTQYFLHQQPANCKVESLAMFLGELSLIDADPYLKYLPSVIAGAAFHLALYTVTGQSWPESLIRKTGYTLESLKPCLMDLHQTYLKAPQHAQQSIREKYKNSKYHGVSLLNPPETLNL
UniProt P14635: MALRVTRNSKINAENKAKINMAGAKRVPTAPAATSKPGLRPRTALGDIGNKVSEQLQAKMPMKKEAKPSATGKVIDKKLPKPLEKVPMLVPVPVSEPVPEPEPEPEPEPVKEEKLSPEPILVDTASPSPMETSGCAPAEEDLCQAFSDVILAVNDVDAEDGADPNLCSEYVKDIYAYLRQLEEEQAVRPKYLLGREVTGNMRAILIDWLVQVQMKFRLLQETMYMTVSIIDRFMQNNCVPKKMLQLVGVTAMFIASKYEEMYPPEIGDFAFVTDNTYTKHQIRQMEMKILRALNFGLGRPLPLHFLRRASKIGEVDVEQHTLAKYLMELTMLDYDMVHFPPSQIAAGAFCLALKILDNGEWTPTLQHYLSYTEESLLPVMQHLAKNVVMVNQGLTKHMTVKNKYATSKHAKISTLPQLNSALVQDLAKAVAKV

In one assay the target is Myc-CCNB2 (human) (UniProt O95067). The experiment in a line: co-IP; HEK293T cotransfected for 20 h with Myc-cyclin and mCherry-MAD1; Myc IP with 9E10 mAb; Western blot for mCherry.
The target in another assay is Myc-CCNA2 (human) (UniProt P20248). The assay is described as above.
In another assay the target is Myc-CCNB1 (human) (UniProt P14635). The assay is described as above.
Assay [1] addresses CCNB1-mCherry (cyclin B1 tagged at the endogenous locus) (human (endogenous in HeLa)) (UniProt P14635). The experiment in a line: co-IP; CCNB1-mCherry precipitated with anti-mCherry antibodies from CCNB1-mCh or parental HeLa cells arrested in mitosis; Western blotting; also tested without ongoing MPS1 activity (Fig. S2 B).

Results are given in words; binding and its absence hold for the method and conditions named. In cells and extracts the contact can be indirect. Some results given as binding are weak or reduced against the parent protein; the word gives no strength.

B1: full-length mCh-MAD1 (protein, UniProt Q9Y6D9 1-718)
chain: MEDLGENTMVLSTLRSLNNFISQRVEGGSGLDISTSAPGSLQMQYQQSMQLEERAEQIRSKSHLIQVEREKMQMELSHKRARVELERAASTSARNYEREVDRNQELLTRIRQLQEREAGAEEKMQEQLERNRQCQQNLDAASKRLREKEDSLAQAGETINALKGRISELQWSVMDQEMRVKRLESEKQELQEQLDLQHKKCQEANQKIQELQASQEARADHEQQIKDLEQKLSLQEQDAAIVKNMKSELVRLPRLERELKQLREESAHLREMRETNGLLQEELEGLQRKLGRQEKMQETLVGLELENERLLAKLQSWERLDQTMGLSIRTPEDLSRFVVELQQRELALKDKNSAVTSSARGLEKARQQLQEELRQVSGQLLEERKKRETHEALARRLQKRVLLLTKERDGMRAILGSYDSELTPAEYSPQLTRRMREAEDMVQKVHSHSAEMEAQLSQALEELGGQKQRADMLEMELKMLKSQSSSAEQSFLFSREEADTLRLKVEELEGERSRLEEEKRMLEAQLERRALQGDYDQSRTKVLHMSLNPTSVARQRLREDHSQLQAECERLRGLLRAMERGGTVPADLEAAAASLPSSKEVAELKKQVESAELKNQRLKEVFQTKIQEFRKACYTLTGYQIDITTENQYRLTSLYAEHPGDCLIFKATSPSGSKMQLLETEFSHTVGELIEVHLRRQDSIPAFLSSLTLELFSRQTVA
Regarding B1, the binding entry is recorded as “no binding” in the assay with Myc-CCNB2 (human), “no binding” with Myc-CCNA2 (human) and “binds” with Myc-CCNB1 (human).

B2: MAD1 (endogenous) (protein, UniProt Q9Y6D9 1-718)
chain: B1 chain
Turning to B2, the binding result in assay [1] was “binds”.
